Biological target: T1, Human MD2 (amino acids 19-160) (human, UniProt Q9Y6Y9 19-160)
T1 construct: MD2 (lymphocyte antigen 96), human, amino acids 19-160; also called hMD2; source: High Five insect cells, co-expressed with TLR4, purified (IgG Sepharose, thrombin digestion on resin, Superdex 200); not shown: protein A, C-terminal, cleaved
T1 sequence (looked up): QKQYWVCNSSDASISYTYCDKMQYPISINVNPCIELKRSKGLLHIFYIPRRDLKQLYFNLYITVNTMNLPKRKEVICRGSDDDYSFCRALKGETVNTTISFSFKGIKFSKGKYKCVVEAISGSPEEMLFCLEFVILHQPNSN
Experiment: SEC; Superdex 200; hTLR4–MD2 complex alone, co-expressed in High Five cells and co-purified by the protein A tag on MD2 (tag cleaved); elution against standard proteins
Settings: both partners purified

stoichiometry N: 1
B1: Human TLR4 ([…]) (domain or fragment)
chain: not shown
notes: Toll-like receptor 4, human, […]; also called hTLR4; source: High Five insect cells, co-expressed with MD2-protein A, purified (IgG Sepharose, Superdex 200)

Reference: publication PMC5740170, “Pro-inflammatory hepatic macrophages generate ROS through NADPH oxidase 2 via endocytosis of monomeric TLR4–MD2 complex” (Nature Communications, 2017)
